# Results reported in PubChem BioAssay AID761 (NMMLSC, 2007).
# About 400 (0.21%) of roughly 190,000 compounds were called active. This list was built around the results that the source calls inconclusive (neither active nor inactive); the mix of calls is not that of the screen.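 The calls were made as follows: active = percent activity GTP binding at least 20 points away from the 100% baseline, either down as inhibitor or up as activator; inconclusive = compound flagged as likely green fluorescent from well-wide comparison; inactive = the rest.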
# Target: Cell division control protein 42 homolog (Homo sapiens) (UniProt P60953)
# UniProt P60953, sequence (P60953 whole entry, looked up): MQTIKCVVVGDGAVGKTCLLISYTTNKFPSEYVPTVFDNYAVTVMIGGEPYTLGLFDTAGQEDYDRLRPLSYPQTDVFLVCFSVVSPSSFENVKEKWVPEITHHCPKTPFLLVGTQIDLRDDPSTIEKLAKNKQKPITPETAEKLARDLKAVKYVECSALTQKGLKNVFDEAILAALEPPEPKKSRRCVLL
# Assay: wildtype Cdc42 fluorescent GTP binding changes, either direction – biochemical, multiplex bead flow cytometry, Bodipy-GTP, primary screen (AID 761);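 also: median bead fluorescence of bound Bodipy-FL-GTP at 100 nM; 0% = excess unlabeled GTP control and 100% = no compound control; below 100% means less GTP binding so inhibitor and above means activator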
# Conditions: GST-Cdc42 beads, at 10 µM, actives lie on both sides
row,Structure (SMILES),percent activity (GTP binding)
1,CS(=O)(=O)N(CC(=O)Nc1c(F)cccc1F)c1ccc(C23CC4CC(CC(C4)C2)C3)cc1,inconclusive: 108%
2,Cc1ccc(C(=O)N2CCOCC2)cc1Cl,inconclusive: 90%
3,N=c1n(CCN2CCCC2)c2ccccc2n1CC(O)c1ccco1 (stereo not drawn),inconclusive: 108%
4,CC(C)C(c1nnnn1Cc1ccc2c(c1)OCO2)N1CCN(C)CC1 (stereo not drawn),inactive: 101%
5,CCc1ccc(NC(=O)CSc2nnc(SCC(=O)Nc3ccc(CC)cc3)n2N)cc1,inconclusive: 104%
6,COc1cc(/C=N/NC(=O)CCc2c(C)n[nH]c2C)ccc1O,inconclusive: 103%
7,O=C(Nc1cccn(Cc2c(Cl)cccc2Cl)c1=O)c1c(Cl)cccc1Cl,inconclusive: 107%
8,O=C(COc1ccccc1C(=O)Nc1ccccc1)c1ccc(Br)cc1,inconclusive: 89%
9,Nc1ccc(-c2nc3ccc(N)cc3[nH]2)cc1,inconclusive: 92%
10,CCOC(=O)c1ccccc1NC(=O)/C(C)=C/C(=O)O,inactive: 99%
11,Cc1ccc(NC(=O)C2CCCCC2C(=O)O)cc1Cl (stereo not drawn),inconclusive: 86%
12,O=C(CCc1ccccc1)Nc1nc2nc(-c3ccccc3)cc(=O)n2[nH]1,inconclusive: 97%
13,COc1ccc(-c2cc(C#N)nc(N3CCNCC3)n2)cc1,active: 131% [activator]
14,Cc1cccc(NC(=O)CCc2ccccc2)c1,inconclusive: 110%
15,CCCn1cc(CN2CCCC(CNC(=O)c3ccc(F)cc3)C2)c(C)n1 (stereo not drawn),inconclusive: 130%
16,Cc1ccccc1S(=O)(=O)NC1OC(=O)C(Cl)=C1Cl (stereo not drawn),inconclusive: 92%
17,CC(=O)Nc1ccc(S(=O)(=O)Nc2nc3ccccc3nc2-n2ccc(=NC(=O)c3ccc(F)cc3)cc2)cc1,inactive: 92%
18,CC(=O)Nc1ccc(S(=O)(=O)NCCSCc2c(Cl)cccc2Cl)cc1,inconclusive: 101%
19,CC(=O)OCC(=O)NCC(=O)c1c[nH]c2ccccc12,inactive: 107%
20,Oc1ccc(N=Cc2cc(Br)c(N3CCOCC3)o2)cc1,inactive: 105%
21,COc1ccc(C(CC(=O)O)NC(=O)c2cc3cc(Br)ccc3oc2=O)cc1OC (stereo not drawn),active: 77%
22,C/C(=N\NC(=O)c1c[nH]c2ccccc12)c1ccc(C)o1,inactive: 84%
23,CCCCCC(=O)N1CC2(C)CN(C(=O)CCCCC)CC(C)(C1)C2=O,inconclusive: 107%
24,O=C(c1cccc([N+](=O)[O-])c1)N1CCN(C(=O)c2ccco2)CC1,inactive: 94%

row,Structure (SMILES),percent activity (GTP binding)
1,CNc1c([N+](=O)[O-])cnn1-c1cccc(Cl)n1,inactive: 92%
2,Nc1nc(SCC(=O)Nc2ccccc2)nc2nc3c(cc12)CCCC3,inconclusive: 94%
3,CC(=O)c1cccc(NC(=O)C(=O)c2cn(CC(=O)N3CCCCC3)c3ccccc23)c1,inconclusive: 95%
4,CN(C(=O)Cc1c(C(=O)O)n(C)c2ccccc12)c1ccc(F)cc1,inactive: 98%
5,Cc1ccc(N(CC(O)CN2CCCC2)S(=O)(=O)c2ccc(C)cc2)cc1 (stereo not drawn),inconclusive: 104%
6,CC1CCN(CCCCOc2ccc([N+](=O)[O-])cc2)CC1,inconclusive: 98%
7,COc1ccc(-c2csc(C3=C(O)CN(CCCN4CCCC4=O)C3=N)n2)cc1OC,inconclusive: 85%
8,CCCNC(=O)Cc1cc(=O)[nH]c(=O)[nH]1,inconclusive: 105%
9,Cc1cc(NC(=O)C2CC(=O)N(c3ccccc3)C2)no1 (stereo not drawn),inactive: 104%
10,Cc1ccc(Oc2c(F)c(F)nc(N3CCCC3)c2F)cc1,inconclusive: 93%
11,CCOC(=O)c1nc2sc3c(c2c(=O)n1C(C)C(=O)OCC)CCCC3 (stereo not drawn),inactive: 98%
12,CCOc1ccccc1C1C(C#N)=C(N)Nc2onc(-c3ccccc3)c21 (stereo not drawn),inconclusive: 105%
13,CCN(CC)CCNC(=O)CCCCn1c(=S)[nH]c2c([nH]c3ccc(OC)cc32)c1=O,inconclusive: 108%
14,COCCn1c(N)c(C(=O)Nc2sc3c(c2C(=O)OC)CCCC3)c2nc3ccccc3nc21,active: 63%
15,COc1ccc(NC(=O)Cn2c(=O)n(CC(=O)NCc3ccco3)c(=O)c3ccccc32)cc1,inconclusive: 109%
16,CCCC(C)C(=O)Nc1ccc(S(=O)(=O)Nc2nccs2)cc1 (stereo not drawn),inactive: 98%
17,O=C1CC(c2ccccc2)CC(O)=C1C=Nc1ccccc1O (stereo not drawn),inconclusive: 95%
18,O=C1C=C(NCCc2ccccc2)C2(CCCCC2)O1,inconclusive: 96%
19,COc1ccc(-c2noc(CN3CCN(c4ccccc4F)CC3)n2)cc1OC,inconclusive: 94%
20,O=C(NCc1ccc(F)cc1)c1cccc(S(=O)(=O)N2CCCC2)c1,inconclusive: 108%
21,COCCn1c(NC(=S)NC(=O)C2CC2)cc(=O)[nH]c1=O,inconclusive: 89%
22,COc1ccc(N(C(=O)c2cccc(OC)c2OC)C2C=CS(=O)(=O)C2)cc1 (stereo not drawn),inconclusive: 101%
23,CC1(C)CC(=O)C2=C(C1)OC(N)=C(C#N)C21CCC2(CC1)OCCO2,inconclusive: 97%
24,CC1=C(C(=O)OC(C)C)C(c2ccncc2)n2ncnc2N1 (stereo not drawn),inconclusive: 90%

row,Structure (SMILES),percent activity (GTP binding)
1,COc1ccc(NC(=O)CC2S/C(=N\c3nccs3)N(C)C2=O)cc1 (stereo not drawn),inactive: 102%
2,NC(N)=Nc1nc2ccc(Br)cc2c(=O)[nH]1,inactive: 93%
3,CCCNC(=S)NC1CC2CCC(C1)N2Cc1ccccc1 (stereo not drawn),inconclusive: 105%
4,COc1ccc(-c2nnc3ccc(SCC(=O)Nc4cc(C)on4)nn23)cc1OC,inactive: 93%
5,Clc1ccc(CN=C2Nc3ccccc3CS2)cc1,inconclusive: 104%
6,CC(CN1CCOCC1)OC(=O)Cc1ccc(Cl)cc1 (stereo not drawn),inactive: 102%
7,O=C(c1cccc(S(=O)(=O)N2CCCC2)c1)c1cccc(S(=O)(=O)N2CCCC2)c1,inconclusive: 88%
8,CCn1cc(C(=O)OCC(=O)c2cc(C)n(-c3ccccc3)c2C)c(=O)c2ccc(C)nc21,inactive: 87%
9,CSc1ccccc1NC(=O)c1ccc(Br)o1,inactive: 97%
10,Cc1cc(=O)oc(C)c1C(=O)NC1CCCCCCC1,inactive: 96%
11,CCN(CC)S(=O)(=O)c1ccc2oc(C(=O)NC(C)C)c(C)c2c1,inconclusive: 107%
12,S=c1[nH]nc(-c2ccc3ccccc3n2)n1-c1cc(Cl)cc(Cl)c1,inconclusive: 95%
13,O=C1/C(=C\c2cccnc2)Sc2ccccc21,active: 72%
14,COc1ccc(Oc2nnc(C)c3ccccc23)cc1,inconclusive: 108%
15,COc1ccc(-c2cc(C(F)(F)F)nc(S(=O)(=O)CCCC(=O)Nc3cc(C)on3)n2)cc1OC,inconclusive: 91%
16,Cn1c(N2CCOCC2)nc(-c2ccccc2)c1-c1ccccc1,inactive: 101%
17,O=c1c2ccc([N+](=O)[O-])cc2ncn1CCOc1ccccc1,inactive: 84%
18,COc1ccc(OC)c(S(=O)(=O)NC(N)=NCCc2ccccc2OC)c1,inactive: 94%
19,COc1ccc(OCc2ccc(C(=O)NN)cc2)cc1,inactive: 103%
20,COCCCn1c(Cc2csc(Nc3cccc(Cl)c3)n2)nnc1SCC(=O)OC1CCCCC1,inconclusive: 91%
21,CC(C)Cn1cc(C(=O)N2CCN(c3ccccn3)CC2)c2c3ccccc3n(C)c2c1=O,inconclusive: 110%
22,COc1cccc(CN2CCNC(=O)C2CC(=O)N(Cc2cnn(C)c2)C(C)C)c1 (stereo not drawn),inactive: 97%
23,NC(N)=NS(=O)(=O)c1ccc(NC(=S)NC(=O)c2ccc3c(c2)OCO3)cc1,inactive: 109%
24,CCNC(=O)O/N=C(\C)c1sc(-c2ccccc2)nc1C,inconclusive: 104%

row,Structure (SMILES),percent activity (GTP binding)
1,COc1cc(/C=C/C(=O)O)cc(S(=O)(=O)NC2CC2)c1OC,inactive: 98%
2,CC(=O)n1nc(-c2ccccc2)nc1NCc1ccc(N(C)C)cc1,inactive: 95%
3,O=C(Cn1ncc(Cl)c(Cl)c1=O)N1CCN(Cc2ccccc2)CC1,inconclusive: 94%
4,CCOC(=O)C1=C(C)NC(SCC(=O)OC)=C(C#N)C1c1ccc(C(=O)OC)cc1 (stereo not drawn),inconclusive: 87%
5,COc1ccccc1-c1c(C)[nH]n2c(=O)c(Cc3ccccc3)c(C)nc12,inactive: 100%
6,CC1=C(OC(=O)c2ccccc2)C(C)(C)C(c2ccccc2)OC1=O (stereo not drawn),inconclusive: 97%
7,CCOc1ccccc1CN1CCN(Cc2csc(C(C)=O)c2)CC1CCO (stereo not drawn),inactive: 100%
8,Cc1ccc(C(=O)COC(=O)c2ccc3c(c2)C(=O)N(c2cccc4ncccc24)C3=O)cc1,active: 77%
9,COC(=O)c1cccc(NC(=O)c2nn(C)c(=O)c3ccccc23)c1,active: 73%
10,Cc1ccc(-c2c(C(=O)O)c(C(=O)O)c3n2CCC3)cc1,inconclusive: 109%
11,CCCCOC(=O)c1ccc(NC(=S)NC(=O)c2c(Cl)cnn2C)cc1,inconclusive: 98%
12,CCN(CC)Cc1c(C(=O)OC(C)C)nnn1-c1nonc1N,inconclusive: 106%
13,CCN(C(=O)COc1ncnc2ccc(Br)cc12)C1CCS(=O)(=O)C1 (stereo not drawn),inconclusive: 106%
14,CCOC(=O)c1ccc(NC(=O)N2CCN(C(=O)C3CCCO3)CC2)cc1 (stereo not drawn),inactive: 100%
15,O=C1C2C3CCCC3=C3CCCC3C2C(=O)N1c1cccc(Cl)c1 (stereo not drawn),inconclusive: 105%
16,CC(C)c1ccc(C(=O)NC2=NCCS2)cc1,inconclusive: 376%
17,COc1ccc(-n2nnnc2SCC(=O)NC(=O)Nc2ccc3c(c2)OCCO3)cc1,inconclusive: 93%
18,Cc1ccc(CSc2nc3c(c(N(C)C)n2)CCCC3)cc1,inconclusive: 93%
19,COCCNC(=O)c1cc2cc(Cl)cc(Cl)c2oc1=O,inactive: 100%
20,Cc1ccc(/C=N\NC(=O)c2ccc(Cn3cc(Br)c([N+](=O)[O-])n3)o2)o1,inconclusive: 89%
21,COc1ccc(-c2nnc3sc(COc4ccc(C)cc4)nn23)cc1,inconclusive: 94%
